# Experimental data: paper PMC4336329 (PLoS ONE, 2015)
# Out of some 310,000 compounds screened, about 14,000 (4.5%) showed an effect of 50% or more. The effect is printed as a negative number. The list shows a part of the results.
# Biological target: human ether-à-go-go-related gene (hERG) potassium channel (human, UniProt Q12809)
# Assay: primary screen, population patch clamp on CHO cells stably expressing hERG
# 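Note: peak tail current of the secondary pulse compared with the same well before compound.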
# human ether-à-go-go-related gene (hERG) potassium channel, sequence (Q12809 whole entry, looked up): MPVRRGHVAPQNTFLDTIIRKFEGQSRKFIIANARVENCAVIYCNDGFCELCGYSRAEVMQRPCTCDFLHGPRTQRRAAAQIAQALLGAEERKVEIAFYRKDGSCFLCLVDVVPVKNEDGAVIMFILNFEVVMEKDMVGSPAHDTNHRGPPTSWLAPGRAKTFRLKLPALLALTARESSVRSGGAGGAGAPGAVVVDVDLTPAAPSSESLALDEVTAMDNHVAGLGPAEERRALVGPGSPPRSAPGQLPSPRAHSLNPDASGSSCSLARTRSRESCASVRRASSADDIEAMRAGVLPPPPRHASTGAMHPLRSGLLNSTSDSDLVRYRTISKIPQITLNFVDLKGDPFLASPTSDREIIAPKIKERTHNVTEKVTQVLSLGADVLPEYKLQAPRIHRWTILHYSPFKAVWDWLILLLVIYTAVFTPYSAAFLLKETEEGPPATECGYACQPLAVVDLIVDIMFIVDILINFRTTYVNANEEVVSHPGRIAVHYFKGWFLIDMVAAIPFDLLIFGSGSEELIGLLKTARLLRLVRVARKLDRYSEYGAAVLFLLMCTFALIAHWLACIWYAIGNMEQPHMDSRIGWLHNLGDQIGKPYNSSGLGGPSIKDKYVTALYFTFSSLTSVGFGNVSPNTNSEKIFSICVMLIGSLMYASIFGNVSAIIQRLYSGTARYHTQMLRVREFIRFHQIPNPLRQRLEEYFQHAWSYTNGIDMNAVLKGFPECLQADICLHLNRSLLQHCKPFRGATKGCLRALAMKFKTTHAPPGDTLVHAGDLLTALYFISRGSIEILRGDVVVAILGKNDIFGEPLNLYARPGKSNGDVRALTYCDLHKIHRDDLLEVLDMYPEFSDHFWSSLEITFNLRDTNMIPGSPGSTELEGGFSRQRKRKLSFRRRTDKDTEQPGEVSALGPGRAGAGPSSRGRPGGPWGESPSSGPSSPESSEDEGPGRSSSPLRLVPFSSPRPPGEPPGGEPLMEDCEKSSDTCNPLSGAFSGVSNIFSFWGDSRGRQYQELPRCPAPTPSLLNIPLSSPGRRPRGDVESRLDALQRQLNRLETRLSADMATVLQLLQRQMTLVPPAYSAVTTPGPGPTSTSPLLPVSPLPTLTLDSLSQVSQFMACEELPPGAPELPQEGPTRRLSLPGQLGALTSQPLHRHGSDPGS
row,Compound,"hERG current change (%, negative = inhibition) at 10uM"
1,CCn1c2ccccc2c2cc(NC(=O)COC(=O)c3ccccc3F)ccc21,1.98%
2,CCC(C)[C@H](NC(=O)NCc1ccc(S(N)(=O)=O)cc1)C(=O)O (some centres unmarked),10.5%
3,CN(CCC#N)C(=S)Nc1ccc(F)cc1,6.87%
4,Cc1cc(C)c(C#N)c(Nc2ccc(F)cc2)n1,3.38%
5,CCCCCC(=O)Nc1cc2[nH]c(=O)cc(COC)c2cc1C,-20.6%
6,COc1ccc(/C=C/c2nnc(NC(=O)CC(C)C)s2)cc1,15%
7,Nc1nonc1C(=O)N/N=C/c1ccc(-c2cccc([N+](=O)[O-])c2)o1,-25%
8,O=Cc1ccc(OC(=O)/C=C/c2ccccc2)cc1,19.3%
9,CCc1cccc(C)c1NC(=O)CSc1nnc(CCCOc2ccc(Cl)cc2Cl)n1C,-34%
10,CCOC(=O)c1nnc2c(Br)c(-c3ccccc3)nn2c1C,11.2%
11,O=C(COC(=O)c1ncc(Cl)c(Cl)c1Cl)NC(=O)NCc1ccccc1,27.7%
12,NC(=O)Nn1c(CCC(=O)O)ccc1-c1ccc(Br)cc1,9.77%
13,Cc1ccnc2nc(C(=O)OCCOc3ccccc3)nn12,-11.5%
14,CC(=O)OCCCn1c(C)[n+](C)c2cc(Cl)c(Cl)cc21.[I-],-6%
15,COCCN1C=C2C(=O)C(C)(OC(=O)c3cccs3)C(=O)C=C2C=C1CCCC(=O)OC (centres unmarked),3.08%
16,CCOCCCn1c(=S)[nH]c2cc(C(=O)NCCc3ccc(OC)c(OC)c3)ccc2c1=O,5.22%
17,CCOC(=O)CC1=C(C#N)C(c2cccnc2)C(C(=O)OCC)=C(N)O1 (centres unmarked),5.32%
18,CCOCCCNC(=O)CN1C(=O)c2cccc3cccc1c23,18%
19,CN(C(=O)COC(=O)c1ccccc1Cc1ccccc1)C1CCS(=O)(=O)C1 (centres unmarked),-25.4%
20,FC(F)(F)c1cnc(N2CCCN(C(=S)Nc3ccccc3)CC2)c(Cl)c1,-18.4%
21,CCOC(=O)CSc1n[nH]c(NS(=O)(=O)c2ccccc2C(F)(F)F)n1,-1.78%
22,Cc1nc(NC(=O)CSc2cc(C)c3ccccc3n2)c(Cl)cc1Cl,5.23%
23,CCOc1ccc(N=C/C=C/c2ccccc2)c(O)c1,12%

row,Compound,"hERG current change (%, negative = inhibition) at 10uM"
1,CN1CCN(CC(=O)N2c3ccccc3C(=O)Nc3cccnc32)CC1.Cl,10.9%
2,COc1ccc(S(=O)(=O)CCc2nnc(NC(=O)c3ccc(F)cc3)s2)cc1,2.65%
3,Cc1ccc(C)c(OCCC(=O)OCC(=O)Nc2ccc(C)c(S(=O)(=O)N3CCCCC3)c2)c1,-11.7%
4,CCc1ccccc1NC(=O)CCS(=O)(=O)c1ccc2c(c1)CCCN2C(C)=O,14%
5,COc1ccccc1CNC(=O)COc1ccc(C)nc1[N+](=O)[O-],18.3%
6,CCCn1c(SCC(=O)NC(C)(C)C)nnc1-c1ccco1,24.9%
7,O=C(Oc1c(Cl)cc(Cl)c2cccnc12)c1cccs1,1.95%
8,Cc1cc(Cl)c(S(=O)(=O)Nc2ccc(S(=O)(=O)N3CCOCC3)cc2)cc1OCC(N)=O,11.6%
9,NCCc1ccccn1,2.96%
10,CCOC(=O)Cn1nnnc1C,16%
11,CCCCCCn1c(O)c(C(C)=NC)c(=O)[nH]c1=O,1.56%
12,Br.NCCCC(=O)OC1N=C(c2ccccc2Cl)c2cc(Br)ccc2NC1=O (centres unmarked),-12.6%
13,Cc1c(C(=O)N(C)Cc2ccccc2)oc2c(Cl)cccc12,-35.5%
14,CCOC(=O)CSc1ncc(-c2ccccc2)cn1,-16.3%
15,COc1ccc([N+](=O)[O-])cc1CSc1ccccn1,1.85%
16,Cc1nc2ccc(NC(=O)CS(=O)(=O)c3ccc(F)cc3)cc2s1,-7.44%
17,CCc1ccc(NP(=O)(Oc2ccccc2F)Oc2ccccc2F)cc1,16.3%
18,CC(C)NC(=S)Nc1ccc(S(=O)(=O)Nc2ncccn2)cc1,2.63%
19,CCOC(=O)C1(S(=O)(=O)c2ccccc2)CCN(Cc2ccc(Cl)cc2)CC1,-7.54%
20,CC(C)CC(=O)c1c[nH]c(C(=O)NCCCn2ccnc2)c1,8.06%
21,Cc1[nH]c(C)c(S(=O)(=O)Nc2ccc(F)cc2Cl)c1C(=O)N1CCCC1,9.97%
22,COc1ccc(C(=O)Nc2cc(-c3ccc(C)cc3)no2)cc1,19.8%
23,NC(=O)c1nc(C2CCCCC2)nc2c1[nH]c(=O)n2-c1ccc(F)cc1,3.03%

row,Compound,"hERG current change (%, negative = inhibition) at 10uM"
1,O=C(CSc1nc(-c2ccccc2)cs1)Nc1nccs1,-8.07%
2,Cc1ccc(-n2nc3c(c2NC(=O)C(C)(C)C)CS(=O)(=O)C3)cc1,15.8%
3,O=C(O)c1ccc(/C=N\Nc2ccccn2)cc1,20.3%
4,CCN1CCC(NCCc2ccc(F)cc2)CC1,-0.893%
5,S=C(Nc1cccc(Cl)c1)Nc1ccc2cn[nH]c2c1,-15.5%
6,O=C(Nc1ccc2cn[nH]c2c1)c1c(Cl)cccc1Cl,-2.04%
7,CCN(C(=O)COC(=O)/C=C/c1cnc2ccccc2n1)C1CCS(=O)(=O)C1 (centres unmarked),-9.37%
8,Cc1c2c(n3c(nc4ccccc43)c1C#N)N(CCN(C)C)CC2,-21.4%
9,COc1cc(OC)cc(C(=O)NC2CC(C)(C)NC(C)(C)C2)c1.Cl,5.85%
10,Cc1ccc(N2CC(C)Cn3c2nc2c3c(=O)[nH]c(=O)n2C)cc1C (centres unmarked),-10.9%
11,Cc1nn(Cc2ccccc2)c(Cl)c1C(=O)NCCc1ccc(Cl)cc1,-0.126%
12,Cc1ccc(C(=O)NCC(=O)O)o1,-5.14%
13,CC(=O)Nc1ccc(NC(=O)COc2ccc(Cl)cc2Cl)cc1,7.98%
14,Nc1nc(N2CCN(C(c3ccccc3)c3ccccc3)CC2)n[nH]1,15.4%
15,O=C(c1ccc(F)cc1)N1C2CCC1CC(O)(c1ccc(F)cc1)C2 (centres unmarked),-20.6%
16,Cn1cc(S(=O)(=O)Nc2ccc(F)cc2F)c(=O)n(C)c1=O,5.72%
17,COC(=O)c1ccc(NC(=O)c2ccc(NS(=O)(=O)c3cccc4cccnc34)cc2)cc1,12.8%
18,O=C(NCCCO)c1c(O)c2cccc3c2n(c1=O)CCC3,-11.3%
19,O=C1CC(c2ccccc2)Cc2nc3nc(C(F)(F)F)nn3cc21 (centres unmarked),14.5%
20,O=C(N/N=C/c1ccccc1OC(=O)N1CCOCC1)c1cccs1,16.7%
21,O=C1CC(c2c(F)cccc2Cl)C(n2cncn2)C(O)=C1C1NCCc2ccccc21 (centres unmarked),18.3%
22,CC(C)c1ccc(/C=C/C(=O)Nc2nn[nH]n2)cc1,15%
23,N/C(=N\OC(=O)c1cc(-c2ccccc2)nc2ccccc12)c1ccncc1,-11.2%

row,Compound,"hERG current change (%, negative = inhibition) at 10uM"
1,CCOc1ccc(/C(=N\O)C(C)NO)cc1 (centres unmarked),-0.79%
2,CCn1c(CNC(=O)Cc2ccc(OC)cc2)nnc1SCC(=O)Nc1nccs1,-5.75%
3,C/C(=N\S(=O)(=O)c1ccc(C)cc1)Nc1cc(C(C)C)c(O)cc1C,-5.31%
4,O=C(CN1CCN(Cc2ccc(F)cc2Cl)C1=O)NCCCN1CCOCC1,-2.72%
5,CC(=O)Nc1ccc(S(=O)(=O)N2CCN(c3cnn(C)c(=O)c3Cl)CC2)cc1,-4.1%
6,CCOC(=O)C1=C(C)N(C)C(=O)NC1c1c(O)ccc2ccccc12 (centres unmarked),8.89%
7,C#CCOCCOCCOCCNc1nc(N2CCN(C(=O)[C@H]([C@@H](C)CC)n3cc(CCCC[NH3+])nn3)CC2)nc(N2CCN(C(=O)[C@H](CCCC[NH3+])n3cc(CCC(=O)O)nn3)CC2)n1.[Cl-],5.05%
8,COc1cc(Cl)cc(C2NC(=S)NC(c3ccccc3)=C2C(C)=O)c1OCC(=O)O (centres unmarked),18.4%
9,Cc1ccc(S(=O)(=O)Nc2cc(C)c(O)cc2C)cc1,8.21%
10,C=CCN(c1ccccc1)S(=O)(=O)c1cc2c(cc1C)N(C)CCO2,-19.3%
11,COc1ccc(CCC(=O)Nc2ncc(C)s2)cc1OC,16.2%
12,CCOC(=O)N1CCC(NC(=O)c2oc3c(F)cccc3c2C)CC1,-15.4%
13,COC(=O)[C@@]1(Cc2ccc(F)cc2)[C@H]2c3cc(C(=O)N(C)C)n(Cc4ccc(OC(F)(F)F)cc4)c3C[C@H]2CN1C(=O)c1ccccc1,2.51%
14,C=CCn1c(C(C)NC(=O)CC)nc2ccccc21 (centres unmarked),10.6%
15,Cc1ccc(C(=O)Nc2nc(=O)n(C(=O)c3ccccc3C)s2)cc1,34.3%
16,Cc1cc(C(C)(C)C)ccc1OCCN(C)C,-7.47%
17,O=[N+]([O-])/C=C/c1cn(Cc2ccc(F)cc2)c2ccccc12,6.87%
18,CC(=O)C1=C(c2ccccc2)OC(N)=C(C#N)C1c1ccccc1C (centres unmarked),2.19%
19,Cc1cccc(C)c1NC(=O)C(Cl)=C(Cl)Cl,-16.9%
20,O=C(NCCCN1CCCC1=O)c1sc2ccccc2c1Cl,-7.37%
